Test results reported in PubChem BioAssay AID1346428 (National Center for Advancing Translational Sciences (NCATS), 2018).
Several values for one entry are separate records, joined by “and”; a condition that tells them apart may be missing. Equal entries are not always repeated. About 1,200 (2.5%) of roughly 48,000 compounds were called active. About 2% were inconclusive and are not listed.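 The calls were made as follows: active = activation of at least 60% and not above a set upper limit (about 1 call in 100 departs from these limits); inconclusive = activation of 40% to 60%, or above that upper limit; inactive = activation under 40%.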 This is one part of the list.

These molecules were tested against Probable G-protein coupled receptor 32 (Homo sapiens) (UniProt O75388) (assay: qHTS for Agonists of Human Resolvin D1 Receptor DRV1). Conditions: CHO-K1 GPR32 beta-arrestin PathHunter luminescence, 90 min; at 76.9 µM; stronger effect = higher value; zero percent set by DMSO-only wells.
Sequence of UniProt O75388 (O75388 whole entry, looked up, the tested form may be a part): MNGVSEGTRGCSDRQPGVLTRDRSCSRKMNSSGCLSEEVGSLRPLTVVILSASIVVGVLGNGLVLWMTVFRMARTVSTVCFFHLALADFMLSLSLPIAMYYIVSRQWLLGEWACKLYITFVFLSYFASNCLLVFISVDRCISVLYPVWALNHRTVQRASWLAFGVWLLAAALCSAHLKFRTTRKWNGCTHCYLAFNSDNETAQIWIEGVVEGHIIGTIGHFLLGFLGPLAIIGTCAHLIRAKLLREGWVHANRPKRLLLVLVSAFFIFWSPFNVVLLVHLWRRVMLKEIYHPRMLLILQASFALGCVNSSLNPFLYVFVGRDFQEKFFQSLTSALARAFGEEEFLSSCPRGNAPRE
Outline: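 Agonism was scored as beta-arrestin recruitment to ProLink-fused GPR32 in stably transfected CHO-K1 cells, giving a chemiluminescent beta-Gal signal; compounds were incubated 90 min at 37 °C.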
Also: 0% is about no effect.

Row | SMILES | activation
1 | CCOc1ccc(NCc2cccn2-c2nnc(N3CCC(C(=O)NCCOC)CC3)s2)cc1 | inactive: -26.8%
2 | C=C(C)Cn1c(=O)c2c(nc3n2CCN3c2ccc(F)cc2)n(C)c1=O | inactive: -8.27%
3 | Cc1ccccc1Nc1cc(C(=O)NCc2cccs2)c2ccccc2n1 | inactive: -6.83%
4 | CCOc1ccc(-c2nc(Cn3ccn4nc(-c5ccc(OCC)c(Cl)c5)cc4c3=O)c(C)o2)cc1 | inactive: -0.955%
5 | COc1ccccc1/C=C/c1nc(C#N)c(NCCc2ccccc2)o1 | inactive: -22.8%
6 | COc1ccc(CNS(=O)(=O)c2ccc(-c3cnc(C4CC4)o3)cc2)cc1 | inactive: -11.7%
7 | CCOc1ccc(N(CC)S(=O)(=O)N2CCCC(C(=O)Nc3cc(Cl)ccc3OC)C2)cc1 (stereo not given) | inactive: -11.7%
8 | Cc1cccc(OCCn2c(SCC(=O)O)nc3ccccc32)c1 | inactive: 39.6%
9 | COc1ccc(C)cc1N(C)C(=O)c1c2c(nc3ccccc13)C(=O)N(C1CCCCC1)C2 | inactive: -9.64%
10 | COc1ccc(Nc2ncc(C(=O)N3CCN(c4ccc(F)cc4)CC3)c3ccccc23)cc1 | inactive: -7.04%
11 | CCOc1ccc(CNS(=O)(=O)c2ccc(-c3coc(C)n3)cc2)cc1 | inactive: -11.5%
12 | COc1ccc(N2CCN(CCCNC(=O)Cn3c(-c4cccs4)cc4ccccc43)CC2)cc1 | inactive: -16.5%
13 | CC1(C)C(=O)N(CC(=O)Nc2ccc(Br)cc2F)c2ccccc21 | inactive: 48.7%
14 | COc1ccc2nc(N(Cc3cccnc3)C(=O)C3CCCCC3)sc2c1 | inactive: -23.3%
15 | COc1cccc(C2C(C(=O)Nc3ccc(C)cc3C)=C(C)Nc3nc4ccccc4n32)c1OC (stereo not given) | inactive: -13%
16 | CCOC(=O)c1cc(S(=O)(=O)N2CCN(c3ccccc3F)CC2)[nH]n1 | inactive: -4.78%
17 | Cc1nc2ccc(S(=O)(=O)N(C)CC(=O)Nc3cccc(C(F)(F)F)c3)cc2s1 | inactive: 10.1%
18 | CCCCN(CC)CCCNC(=O)Nc1sc2nc3n(c(=O)c2c1C)CCC(C)CC3 (stereo not given) | inactive: -3.68%
19 | CC(NC(=O)C1CCN(c2nc3ccccc3nc2C(F)(F)F)CC1)c1ccccc1 (stereo not given) | inactive: 4.49%
20 | CCCCNC(=O)c1cccc(-n2c(C)nc3cccnc32)c1 | inactive: -0.114%
21 | Fc1ccc2c(c1)-c1nc(-c3ccccc3)cc(-c3ccccc3)c1CO2 | inactive: 37.5%
22 | Cc1c(NC(=O)Nc2ccccc2C(F)(F)F)sc2nc3n(c(=O)c12)CCC(C)CC3 (stereo not given) | inactive: -3.24%

Row | SMILES | activation
23 | CCOc1cc(C(=O)N2CCn3c4c(c5cc(C)ccc53)CCCC42)cc(OCC)c1OCC (stereo not given) | inactive: -7.57%
24 | COc1ccc(N(C(=O)c2cccc(C)c2)S(=O)(=O)c2ccc(Cl)cc2)cc1 | inactive: -0.276%
25 | CC(C)CCNC(=O)c1cnc2sc(N3CCCCC3)nn2c1=O | inactive: 48.5%
26 | Cc1ccc(Cl)cc1N(C)C(=O)c1cn(C2CCCCC2)c(=O)c2c1c1ccccc1n2C | inactive: -1.5%
27 | CC(=O)C1=C(c2ccc(Cl)cc2)N(C(C)=O)n2c(nnc2C2CCCCC2)S1 | inactive: -19.5%
28 | Oc1ccc(/C=C/c2cc(O)cc(O)c2)cc1 | inactive: -4.27% and inactive: -1.15%
29 | CCN(Cc1ccccc1)S(=O)(=O)c1ccc2c(c1)CC(C)N2C(=O)C1CCC1 (stereo not given) | inactive: -6.13%
30 | Cc1ccc(N(CC(=O)Nc2cccc(Cl)c2)S(=O)(=O)c2cccs2)cc1 | inactive: -15.4%
31 | O=c1c2oc3ccccc3c2n(Cc2ccccc2F)c(=O)n1Cc1ccccc1 | inactive: -4.56%
32 | Cc1ccc2onc(CC(=O)Nc3ccc(C(C)C)cc3)c2c1 | inactive: 6.01%
33 | Cc1ccc2c(c1)N(CCC(=O)NCc1ccccc1Cl)C(=O)CO2 | inactive: -7.42%
34 | COc1cccc(CNC(=O)c2cc3c(=O)oc4ccc(C)cc4c3s2)c1 | inactive: 3.01%
35 | CC(=O)N1CCC(N(Cc2ccc(C)o2)C(=O)Nc2ccc(C)cc2)CC1 | inactive: -3.09%
36 | COc1ccc(-c2nnc(SCc3cccc(Cl)c3)o2)cc1 | inactive: -2.59%
37 | Cn1c(=O)[nH]c(=O)c2c1nc(NCCc1ccccc1)n2Cc1ccc(F)cc1 | inactive: -1.91%
38 | CCOc1ccc(OCC)c(NS(=O)(=O)c2ccc(-c3coc(C)n3)cc2)c1 | inactive: 3.22%
39 | Cc1cc(NC(=O)Nc2nnc(N(C)Cc3ccccc3)s2)ccc1Br | inactive: -13.4%
40 | Cc1ccc(O)c(NC(=O)c2cc(-c3ccccc3O)no2)c1 | inactive: -10.3%
41 | Cn1cc(S(=O)(=O)N2CCOCC2)cc1C(=O)Nc1ccc(Cl)c(C(F)(F)F)c1 | inactive: 13.3%
42 | COc1cc(NC(=O)c2cn(C3CCCC3)c(=O)c3c2c2ccccc2n3C)cc(OC)c1OC | inactive: 4.11%
43 | Cn1cnc2c(=O)oc3ccc(S(=O)(=O)Nc4ccc(F)cc4)cc3c21 | inactive: 1.58%
44 | CCOc1ccc2nc(NC(=O)c3nc(SC)ncc3Cl)sc2c1 | inactive: 11.1%

Row | SMILES | activation
45 | CCOc1ccccc1NC(=O)Cc1noc2ccc(C)cc12 | inactive: 1.45%
46 | COc1ccc(CNCCC(c2ccccc2)c2ccc3c(c2)OCO3)cc1 (stereo not given) | inactive: 11.7%
47 | Cc1cc(Br)ccc1NC(=O)c1ccc(NS(=O)(=O)c2c(C)noc2C)cc1 | active: 63.8%
48 | COc1ccccc1NC(=O)NCc1cccn1Cc1ccccc1 | inactive: -3.78%
49 | CCCC1=Nc2cc(C(=O)NCCc3ccccc3)ccc2Sc2ccc(C)cc21 | inactive: -0.374%
50 | CCOc1ccc(NC(=O)/C=C\C(=O)N(c2ccc(C(C)C)cc2)C(C(=O)NCc2ccco2)c2ccc(F)cc2)cc1 (stereo not given) | inactive: -11.5%
51 | COc1ccc(-c2cnn3c(C)cc(C)nc23)cc1OC | inactive: -10.4%
52 | CCOc1ccc(-c2nc(SCC(=O)NC3CCCC3)c(-c3ccccc3)[nH]2)cc1OC | inactive: -26.5%
53 | COc1cccc(-c2nc(SCC(=O)NC3CCCC3)c(-c3ccccc3)[nH]2)c1 | inactive: -19.1%
54 | COc1ccc(NC(=O)Cn2cnc3ccc(S(=O)(=O)N4CCC(C)CC4)cc3c2=O)cc1OC | active: 113%
55 | CCOc1ccc(CCNC(=O)CSc2cc(=O)n(C)c3cc(Cl)ccc23)cc1OCC | inactive: -1.62%
56 | Cc1ccc(-c2noc(CCCC(=O)NCc3ccco3)n2)cc1 | inactive: 10.9%
57 | O=C(CSc1nc(-c2cccs2)nc2cc(=O)[nH]n12)Nc1ccccc1F | inactive: 20%
58 | CSc1ccc(CCNC(=O)CN2C(=O)c3cccnc3Oc3ccc(Cl)cc32)cc1 | inactive: -5.53%
59 | CCOc1ccc(CCNC(=O)CCc2c(C)nc3cc(-c4ccccc4OC)nn3c2C)cc1 | inactive: -9.91%
60 | CCCCn1c(NCc2cc(Cl)ccc2O)nc2ccccc21 | active: 102%
61 | Nc1c(-c2nc(-c3ccc4c(c3)OCO4)cs2)c2ccccn2c1C(=O)c1ccccc1 | inactive: 17.3%
62 | COc1cc(C(=O)N2CCc3c([nH]c4ccccc34)C2c2ccc(C)cc2)cc(OC)c1OC (stereo not given) | inactive: -31.4%
63 | CCC(=O)N1CCc2cc(S(=O)(=O)NC(Cc3ccccc3)C(=O)Nc3cccc(OC)c3)ccc21 (stereo not given) | inactive: -2.35%
64 | Cc1cccc(N(C)c2ccc3cc(S(=O)(=O)N4CCCC4)ccc3n2)c1 | inactive: -14.5%
65 | Cc1ccc2c(c1)c(N1CCCC1=O)c(C(=O)Nc1ccc(F)cc1F)n2C | inactive: 2.29%
66 | O=C(C1CCCN(S(=O)(=O)c2cccc3nsnc23)C1)N1CCN(c2ccccc2Cl)CC1 (stereo not given) | inactive: -3.32%

Row | SMILES | activation
67 | O=C(CCCCCn1c(=O)[nH]c2ccccc2c1=O)NCc1ccccc1 | inactive: -18.4%
68 | Cc1ccc(C)c(NC(=O)CSC2=Nc3ccccc3N=C(c3ccc(F)cc3)C2)c1 | inactive: -7.64%
69 | CCOC(=O)c1cc(S(=O)(=O)N2CCN(c3ccc(C)cc3C)CC2)[nH]n1 | inactive: -10.8%
70 | Cc1ccc(-c2nnc3c4ccccc4c(C)nn23)cc1NC(=O)c1ccccc1Cl | inactive: -2.9%
71 | Cc1ccc(S(=O)(=O)c2nnn3c2nc(N2CCCC2)c2sccc23)cc1 | inactive: -2.46%
72 | COc1cccc(N2CCN(c3ncnc4onc(-c5ccc(F)cc5)c34)CC2)c1 | inactive: -0.163%
73 | Cc1nc2scc(C)n2c(=O)c1S(=O)(=O)N1CCN(c2cccc(C(F)(F)F)c2)CC1 | inactive: 5%
74 | CN(C)c1ccc(NC(=O)Cn2cc(S(=O)(=O)Cc3cccc(Cl)c3)c3ccccc32)cc1 | inactive: -18.1%
75 | COc1ccc(N2CC(NC(=O)c3cc4ccccc4o3)CC2=O)cc1 (stereo not given) | inactive: -3%
76 | CC(=O)c1cc(-c2ccccc2)n(CCC(=O)Nc2ccc(C)cc2C)c1C | inactive: -4.35%
77 | COc1ccccc1CNC(=O)CCC1N=C2c3ccccc3N=C(SCc3ccc(C)cc3)N2C1=O (stereo not given) | inactive: -40.7%
78 | Cc1cc(C(=O)NCc2ccc(Cl)cc2)c2c(C)nn(-c3ccccc3)c2n1 | inactive: -7.17%
79 | COc1ccc(CCC(=O)NCCc2csc(-c3ccc(C(F)(F)F)cc3)n2)cc1 | inactive: 23%
80 | CCCc1nnc(NC(=O)c2cc(=O)c3cc(Cl)ccc3o2)s1 | inactive: 7.69%
81 | CC1Cc2cc(S(=O)(=O)NCCc3ccccc3)ccc2N1C(=O)C1CCC1 (stereo not given) | inactive: 25.7%
82 | CS(=O)(=O)N1CCc2cc(C(=O)N3CCN(c4ccccc4)CC3)ccc21 | inactive: -4.12%
83 | CC1CCC(N2CC(=O)N(C3CCCCC3)C(c3ccc(F)cc3)C2=O)CC1 (stereo not given) | inactive: -27.7%
84 | Cc1ccc2c(c1)N(C(=O)Nc1cccc(C)c1C)CCO2 | inactive: -24.6%
85 | O=C(COc1ccccc1[N+](=O)[O-])Nc1cccc(-c2nc3ccccc3s2)c1 | active: 83.7%
